# Experimental data published in PubChem BioAssay (NCATS).
# The list shows a part of the results. Shown are side measurements of this screen, not its main read-out; they come without a call. Compounds called inactive in the main read-out are mostly missing here. Potencies come from curve fits of mixed quality, noted in brackets.
# Experiment: qHTS Assay for Lipid Storage Modulators (AID 1519)
# Settings: Drosophila S3 cells, BODIPY lipid droplet/cell ratio, laser cytometry; measured here: lipid (BODIPY) channel AC50; cells loaded with oleic acid
# Summary of the method: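 Cells seeded at 5,000 per well were treated with compounds over a concentration series and loaded with oleic acid (400 uM, as added). Lipid droplet fluorescence (488 nm excitation, 500-530 nm channel) was read by laser-scanning cytometry and normalized to 20 uM Triacsin C.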
# Tags tell the direction and shape of the fitted curve.
row,Compound,AC50
1,COc1ccc2[nH]c(-c3ccccc3)c(CCNC(C)=O)c2c1,"0.398 µM [rising, full curve]"
2,COc1ccccc1CNc1ccnc(-c2c(C)noc2C)n1,"1.26 µM [rising, partial curve]"
3,C=CC(C1=CC(=O)C(OC)=C(OC)C1=O)c1ccccc1 (stereo unspecified),"28.2 µM [falling, single point]"
4,c1cncc(-c2cc(NCc3cccs3)ncn2)c1,"12.6 µM [rising, partial curve, poor fit]"
5,O=C(c1cnccn1)N1CCC[C@@]2(CCN(Cc3ccncc3)C2)C1,"1.58 µM [rising, full curve, poor fit]"
6,C=C1C(=O)O[C@@H]2C3OC3(C)CC/C=C(\C)CC[C@@H]12 (stereo partly specified),"39.8 µM [rising, single point]"
7,CCNc1ncc2nc(CCc3ccccc3)c(=O)n(Cc3cccc(OC)c3)c2n1,"0.631 µM [rising, partial curve]"
8,CN1CCN(c2ncnc3ccc(-c4cccnc4)cc23)CC1,"2.51 µM [rising, full curve]"
9,Cn1cc(-c2nc3cncnc3n(Cc3ccccc3Cl)c2=O)c2ccccc21,"5.01 µM [rising, partial curve, poor fit]"
10,O=c1[nH]c2cc(Cl)ccc2c(O)c1-c1cccc(Oc2ccccc2)c1,"31.6 µM [rising, partial curve]"
11,COc1ccc(-c2coc3ccc(OC4OC(COC(C)=O)C(OC(C)=O)C(OC(C)=O)C4OC(C)=O)c(OC(C)=O)c3c2=O)cc1 (stereo unspecified),"17.8 µM [rising, partial curve, poor fit]"
